The supplement of paper PMC11417369
The other results are listed elsewhere or left out.

System: PfAP2-HC AP2 domain (GST-tagged)
Assay: gcPBM binding intensity (ln(normalized median fluorescence intensity)); higher = stronger DNA binding
Summary of the method: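 Binding intensity values are the highest Masliner-normalised natural-log median intensity among replicate spots of either probe orientation. The binding step lasted 1 h in 1× PBS with 1% milk, 0.2 mg/ml BSA, 0.5% salmon testes DNA and 0.03% Triton X-100, using GST-tagged P. falciparum DNA-binding domains expressed in E. coli on an Agilent 4 × 180k array of primer-extended double-stranded 36-bp intergenic genomic probes plus negative controls. Alexa488 anti-GST antibody and a 488 nm scan detected bound protein.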

Row | Sequence | gcPBM binding intensity (ln)
1 | AATCCACAAAGACACACACACACATATATATATATA [CACACA_site1269] | 10.8
2 | AAAATTCTTCGGGGGAGTACAAGGATATTCTACGTT [XGTACX_site3974] | 10.2
3 | TTATAATATATATGTGGTACTTATTTATTTATTTAT [XGTACX_site7572] | 9.7
4 | ATTTTTGATTTTAAAAGTACATAAGTATACTATTTA [XGTACX_site7162] | 9.55
5 | TTTTGTAATTTTGTATGTACACATTAAAGTAATATG [XGTACX_site2401] | 9.66
6 | ATAAATAAATTTATACGTACACATAATATATATATA [XGTACX_site4634] | 9.7
7 | ATTGAAAATTATTTACCTTCTTTGAAAGAACAAATG [CACACA_negctrl_site1736] | 9.41
8 | AAAAATAAAATGATGGTGCACATAAAGTATGGTTAC | 10.2
9 | TAAATAATCGCATAATGTACATATAATTTTTTTTTT [XGTACX_site4880] | 9.51
10 | AAAATTTTTTTTATTTGTACACAATTCGATACATAA [XGTACX_site4804] | 9.58
11 | GCTTGGATATATTAATGTACTTATATATTATGTTGT [XGTACX_site3768] | 9.82
12 | CCAATTCAAATATGCACACAAATTTGAAAACGATTA [CACACA_site3607] | 9.71
13 | CTTTTGCCCAAAAAGGTACACACCACAATGTACATA [CACACA_site809] | 9.6
14 | GTTAATATACATAAACGTACAGAATTATTATGAGTT [XGTACX_site5185] | 9.72
15 | TTTGTTGTTGTGAAACGTACTCATAGGATGTTGTAT [XGTACX_site5716] | 9.56
16 | ATATTTTCAATGTTCACACATACACAAAAAAAAAAA [CACACA_site6077] | 9.7
17 | AAAGATGGAGTGATATGTACTGATATATTATTATAT [XGTACX_site6500] | 9.77
18 | AAGCATAAAGTATATAGTACATATATATATATATAT [XGTACX_site2945] | 9.59
19 | ATTAAAAAATCCATAGTGCACTACGATAGGTTCCGA [GTGCAC_site9463] | 9.7
20 | TTTTTTATTGTGATACGTATATTATTTTATGATAAA [CACACA_negctrl_site1591] | 9.59
21 | TAAAAATGTAAACACACACACATAAATATATTTTAT [CACACA_site5397] | 10.3
22 | ATATAGTAAAGTTATACACACATGAATTTTCCCATA [CACACA_site7457] | 9.86
23 | ATATTTTAATTATAAAGTACATAAAAATATATAAAC [XGTACX_site6705] | 9.72

Row | Sequence | gcPBM binding intensity (ln)
24 | AAAAAAGAAACAATCGCATGCAATGTTAATGTACAT [TGCATGCA_site395] | 10
25 | TACGCAAAATAAAATCAAAATATAAGGAAAAAAAAA [TGCATGCA_negctrl_site578] | 9.55
26 | AGGTGTCATATATGCACACAAAAGTAACACGCACCT [CACACA_site472] | 10.1
27 | TTTTTTAAACGTTTAAATAATTAAATATAAATAAAT [CACACA_negctrl_site1567] | 9.19
28 | TGAACAACTATTACTGCACACATTCTTACACTATAT [CACACA_site4533] | 10.6
29 | AAAAAAAAAAAAGGTACTACACACTATTATCAATAG [XGTACX_site161] | 9.76
30 | GATAATTTTTGCATATGTACTTAAAAATTAAAAATT [XGTACX_site7037] | 9.48
31 | GACCTACAAAAAGGCACACATATACTCATACATACA [CACACA_site5232] | 9.82
32 | ACATTTATTTTGAATGGTACACTATTATTATGAAAT [XGTACX_site4384] | 9.52
33 | GTGTAATGCTTATCGGTGCATATATATATATATATA | 9.68
34 | TATCTCTACAAAATTTTATTCATTATTCATGTTATA [XGTACX_negctrl_site452] | 9.5
35 | ACAAAGAAATATAATACACACAAGAATATATTGGAT [CACACA_site3901] | 10.2
36 | TAATATTTATCAAGTCGTACATAAAATGTATAATAA [XGTACX_site1103] | 9.63
37 | GTACAATAAGATGTAGCATGCCGTACCTTCACTACG [TGCATGCA_site235] | 9.6
38 | ATACTGTATGAAAGCACACATACTTATTACTAACAT [CACACA_site4164] | 9.8
39 | TATACATATTTGTATTGTACATAAACTAAATCTTCA [XGTACX_site610] | 9.45
40 | CAAATAACAAAATAATGTACATTTATACTTTTTTTT [XGTACX_site943] | 9.61
41 | AAATAGAGAAATACAAGTACATACTAAACCTATCTA [XGTACX_site1334] | 9.87
42 | AGGATTATATATTAATGTACCCGCGTTAATTTTTTT [XGTACX_site2878] | 9.76
43 | TCTAATAAAATAAATACATGCATACATACATACATA [TGCATGCA_site895] | 9.62
44 | TTATTAAATGAAAAATGTACATATAAATGATTATAT [XGTACX_site2788] | 9.55
45 | GAAATGTGTAGACACGCACACACAAAAAAATATATA [CACACA_site2912] | 10.2
46 | ATGTATAAACATATATGTACTTAAATAAAATGTTAA [XGTACX_site4044] | 9.86

Row | Sequence | gcPBM binding intensity (ln)
47 | AAAAATAAAAAAATAATAAAATAAAAAATAAAAAAT [TGCATGCA_negctrl_site89] | 9.8
48 | TAAAAAAACATATATTGTACGGAGATAATAATTTTT [XGTACX_site2946] | 9.64
49 | TATACTGTCAATTCTACACACCATAGGGGGAGCATA [CACACA_site1875] | 10.1
50 | CACCAATTCATATGCACACACATCTGCATATTATAT [CACACA_site1773] | 10.2
51 | ATTAAAAGAACAATGTAAAAAAAGCAAATTAAAGAT [TGCATGCA_negctrl_site360] | 10
52 | AAAAAAAAAATACAGGTGCAATAAGAAAAAAATGGT | 9.86
53 | TATATTAACAAAATGGTGCAATAATTTCTATATTAT [GTGCAC_site9857] | 9.57
54 | CCAAATTTATAAAGAACACACACATATATATATATA [CACACA_site7900] | 10.2
55 | TATACATATTTAATATGTACATAATAATACTTATTC [XGTACX_site6939] | 9.59
56 | AAGCATGTAGAATAATGTACTTGTGATTTTAATATA [XGTACX_site8565] | 9.83
57 | ATATTTTTTGTATGTTGTACATAAAATATACATTTT [XGTACX_site6815] | 9.75
58 | AGATACTTTTTTAAAAGTACAAAAACTTTCGATATA [XGTACX_site959] | 9.45
59 | CATACATACATACATACACACATACATATATATATA [CACACA_site8388] | 9.87
60 | TCTAAAATAGTCCAGAGTACAAGAAACCATAATATA [XGTACX_site5237] | 9.52
61 | ATATAGGTAATATTTTGTACATATTTTTGGGGTAGT [XGTACX_site5634] | 9.83
62 | AATTCTTTTTTCAACACACACACACCCGAAAATATA [CACACA_site3111] | 10.5
63 | TTCTAATATATGCATACACACAAATGTGAATATACA [CACACA_site2142] | 9.83
64 | ATATATTTATTTATATGTACATAATATTTTTCTCAG [XGTACX_site800] | 9.52
65 | AAAAAAAAAAAAAACACACACACACCCAAATATATA [CACACA_site1169] | 11.3
66 | AAAAATGCAATTTAATGTACACATAAGATGTTATTT [XGTACX_site6853] | 9.67
67 | TTTTTTATTACTTTGTGTACTTACACAGAACCTTAT [XGTACX_site6038] | 9.76
68 | ATAAAAATATAAACATGTACATAAAAATCTATATAT [XGTACX_site405] | 9.82
69 | TTGCTTATATTTCTAAAATGTAAAAGACACAAAGGT [XGTACX_negctrl_site225] | 9.45

Row | Sequence | gcPBM binding intensity (ln)
70 | AAAAAGGTTATTGGTACACACATATGTATATATATA [CACACA_site552] | 10.1
71 | GAACCGTGCAAATGTTGTACACTTTAAAAATATTCT [XGTACX_site4488] | 9.78
72 | ATATGTGTGTAGTGTTCAATTATATTGATGTGAAGG [TGCATGCA_negctrl_site462] | 10.1
73 | TTATAATAATTTTATGCACACAGAAAAATACAAGGT [CACACA_site9169] | 9.87
74 | ATAATATATATATTAACACACATCCTTTTATGTATA [CACACA_site1203] | 9.83
75 | TACATATAGAAACACACACACATATATATATATATA [CACACA_site1300] | 10
76 | TAGGAGCCTAGACACACACACAAAAAAAAAAAAAAA [CACACA_site6911] | 9.89
77 | AAAACGAAAATTTGGAAACCAAAGGAAAAACATAAT [GTGCAC_negctrl_site709] | 9.85
78 | TATATAAGAATTTTTACACACATGAAAATGTAGATA [CACACA_site3735] | 9.69
79 | TATTTAATGTGATACTTATATTATTTTATGATTAAA [GTGCAC_negctrl_site25] | 9.49
80 | TATACATACTCACCCACACACAAAAAAAAAAAAAAA [CACACA_site862] | 10.4
81 | ACAAAATAAAAACACACACACAAACACAAAAAAATA [CACACA_site3390] | 11.4
82 | AGCTCTTGTCATTTTGCACACACACCGGTATAGGTT [CACACA_site5654] | 10.2
83 | AGAAGGTAAAAACACACACACACATACAAAAAAAAA [CACACA_site3767] | 10.7
84 | TATATATACAGACACATACACACAAATAAAAAAACA [CACACA_site3413] | 10.3
85 | ATATTTAAAAAAGAGTGTACTCATCTCTTTTAAAAA [XGTACX_site1160] | 9.32
86 | ATGTTGCTCATATGAGTGCACGTTTCATTTCAGTTT [GTGCAC_site9865] | 9.77
87 | AATGTAGGTTTATTTACACACAAATATAGATATATA [CACACA_site6825] | 9.89
88 | GTGTATTTATGTTATACACACAAAAATATTTTGTAT [CACACA_site4305] | 9.9
89 | CTATTTCGTATATATAGTACATATTATAACATACTA [XGTACX_site978] | 9.65
